In PubChem BioAssay AID504832 (National Center for Advancing Translational Sciences (NCATS), 2011):
Among all 310,000 compounds or so, about 18,000 (5.8%) were called active. Inconclusive means that the source gave no clear call. Such entries were picked first, then a sample of the others. The call rests on the fitted dose curve; in most records, active means well fitted inhibition curve with a large enough effect; inconclusive means small, poorly fitted or top-dose-only effect, or another doubt; inactive means no such curve, though single readings can be large or run the other way. Potencies of inconclusive entries are left out as doubtful fits.

experiment: Primary qHTS for delayed death inhibitors of the malarial parasite plastid, 48 hour incubation; settings: P. falciparum luciferase growth in erythrocytes; series mostly up to 28.7 µM; activity change, negative = inhibition: at the top concentration
Procedure, shortened: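 Luciferase-expressing parasites in RBCs, 2% Hct / 0.1% parasitemia final; RPMI 1640 + 0.5% Albumax; 37 C, 5% CO2, one generation; luminescence read-out, lower signal = inhibition.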
On the % scale 0 is the no-effect control and ±100 the full control effect; potency means the concentration at half of the fitted maximal effect; tags describe the fitted curve by direction and shape.

Compound	Potency	activity change, negative = inhibition
CN(CC(=O)Nc1cccc(F)c1)C(=O)c1cc(S(=O)(=O)N2CCN(c3ccccc3)CC2)ccc1Cl	inconclusive [inhibitor, partial curve, poor fit]	
C=C(C)COc1ccc(-c2ncnc(C(F)(F)F)c2-c2ccc(OC)cc2)c(O)c1	active: 1.65 µM	
Clc1ccccc1OCCCCN1CCNCC1	inconclusive [inhibitor, partial curve, poor fit]	
Cc1ccccc1-c1nnc(SCC(=O)N2CCCC2)o1		inactive: 54.8%
COc1cccc(C=Nc2ccccc2C(=O)Nc2ccccc2)c1O		inactive: 87.7%
COc1ccc(/C=N/n2cnnc2)cc1Cn1nc(C)c([N+](=O)[O-])c1C		inactive: 2.51%
Nc1nc(Nc2ccc(Cl)cc2)nc(NCc2ccco2)c1[N+](=O)[O-]	inconclusive [inhibitor, single point]	
CN1CC(c2ccccc2Cl)C2(COc3ccccc3C2=O)C12C(=O)Nc1ccccc12 (stereo not drawn)	inconclusive [inhibitor, full curve]	
Cc1ccc(O)c(CP(=O)(c2ccccc2)c2ccccc2)c1	inconclusive [inhibitor, single point]	
CCCCSCCCNC(=O)c1ccc(CS(=O)(=O)c2ccccc2OC)o1		inactive: -11.3% [at 0.00184 µM]
CC1=C(C(=O)N2CCOCC2)C(c2ccsc2)C2=C(CCCC2=O)N1 (stereo not drawn)		inactive: 1.88%
CN(C)S(=O)(=O)N1CCC(c2ccc(F)cc2)C(COc2ccc3c(c2)OCO3)C1 (stereo not drawn)	inconclusive [inhibitor, single point]	
COc1ccc(S(=O)(=O)N2CCC(C(=O)N3CCC(C(N)=O)CC3)CC2)cc1Cl	inconclusive [inhibitor, single point]	
O=[N+]([O-])c1cc([N+](=O)[O-])c(Oc2ccc(Br)cc2Br)cc1NN1CCCCC1		inactive: 58.8%
Cn1c2ccccc2c2c(C(=O)N3CCN(c4ccc(F)cc4)CC3)cn(C3CCCC3)c(=O)c21	active: 10.4 µM	
CCOC(=O)N1CCN(C(=O)CNC(=O)C23CC4CC(CC(C4)C2)C3)CC1	inconclusive [inhibitor, partial curve]	
Cc1cc(C)n(CC(=O)N2c3ccccc3Sc3ccccc32)n1	inconclusive [inhibitor, single point]	
COc1ccccc1N(CC(=O)NCCSCc1ccccc1)S(C)(=O)=O		inactive: -1.7% [at 0.00184 µM]
COc1cccc(N2CC(NS(=O)(=O)c3ccc(Cl)cc3)CC2=O)c1 (stereo not drawn)	inconclusive [inhibitor, partial curve]	
COc1ccccc1NC(=O)Cc1nn(C)c(=O)c2ccccc12	inconclusive [inhibitor, partial curve]	
CN=CC1=C(O)c2ccccc2C1=O		inactive: 30.2%
CC(C)(C)c1nnc(NC(=O)Cc2ccccc2[N+](=O)[O-])s1		inactive: -8.39%

Compound	Potency	activity change, negative = inhibition
Cn1c(=O)n(C)c2cc([N+](=O)[O-])c(N3CCN(S(=O)(=O)c4ccc(C(C)(C)C)cc4)CC3)cc21	active: 9.28 µM	
Cc1nc2ccc(NC(=O)NCCCO)cc2s1		inactive: 47%
C=CCNC(=S)N/N=C/c1ccc(OCc2ccccc2Cl)cc1	inconclusive [inhibitor, partial curve, poor fit]	
CCOc1cc2[nH]c(=S)n(CCCN3CCOCC3)c(=O)c2cc1OCC	inconclusive [inhibitor, single point]	
COc1ccccc1/C=C/C(=O)OCc1nc2ccccc2c(=O)[nH]1	inconclusive [inhibitor, single point]	
CCCc1cc(-c2[nH]ncc2-c2ccc3c(c2)OCCCO3)c(O)cc1O	inconclusive [inhibitor, partial curve, poor fit]	
O=C(NCc1ccco1)C(c1ccco1)N(CCc1ccccc1)C(=O)Cn1nnc2ccccc21 (stereo not drawn)	inconclusive [inhibitor, partial curve, poor fit]	
O=C(CN1C(=O)/C(=C/c2ccc(Cl)cc2)SC1=S)NC1C=CS(=O)(=O)C1 (stereo not drawn)		inactive: 45.2%
O=C(CN1CCN(C(=O)c2ccc(-c3nc4ccccc4s3)o2)CC1)Nc1ccccc1Cl	inconclusive [inhibitor, partial curve, poor fit]	
CC(C)=CCCC1(C)C=Cc2c(ccc3c2[nH]c2cc(O)c(C)cc23)O1 (stereo not drawn)	active: 9.28 µM	
CCC(C)Oc1cccc(OCCCCN2C(=O)NC(C)(C)C2=O)c1 (stereo not drawn)		inactive: -11.8%
O=C(O)c1ccc(C2Nc3ccccc3C(=O)N2Cc2ccccc2)cc1 (stereo not drawn)	inconclusive [inhibitor, partial curve, poor fit]	
O=C(NC(=S)N1CCN(c2nc(-c3ccccc3)cs2)CC1)c1cncc(Br)c1	inconclusive [inhibitor, full curve]	
Cc1c(Oc2ccc(C(F)(F)F)cc2[N+](=O)[O-])ccc2c3c(c(=O)oc12)CCC3	inconclusive [inhibitor, full curve, poor fit]	
O=[N+]([O-])c1ccccc1-c1cc(-c2cc(Cl)ccc2O)n[nH]1	inconclusive [inhibitor, single point]	
O=C1C(Cc2ccccc2)C(c2ccccc2)N1c1ccccc1 (stereo not drawn)	inconclusive [inhibitor, single point]	
CN(C)S(=O)(=O)c1cccc(NC(=O)COc2ccc3ccccc3c2)c1	inconclusive [inhibitor, single point]	
CC(C)OC(=O)c1cc2c(ccn2C)n1CC(=O)N1CCC(Cc2ccccc2)CC1	inconclusive [inhibitor, single point]	
ClC1C(Cl)C(Cl)C(Cl)C(Cl)C1Cl (stereo not drawn)	inconclusive [inhibitor, partial curve, poor fit]	
O=C(OCc1ccc(Br)cc1)c1cccc(S(=O)(=O)N2CCCC2)c1	inconclusive [inhibitor, single point]	
Cc1ccc(CN2CC(C(=O)N3CCN(S(=O)(=O)c4cc(C)ccc4C)CC3)CC2=O)cc1 (stereo not drawn)	inconclusive [inhibitor, single point]	
